The values that follow come from patent publication US4073903A, “3-Desacetoxymethyl-3- 5'(1-methyltetrazolyl)thio!methyl-7- 1-(4-nitr oimidazolyl)acetyl!aminocephalosporanic acid” (Pierrel S.p.A., priority 1975, dated 1978).

The assay has as its system selected bacterial clinical isolates. Kind of assay: Growth inhibition of clinical isolates, broth dilution test (overall statement). Type of assay: cell-based.

With `Cn1nnnc1SCC1=C(C(=O)O)N2C(=O)C(NC(=O)Cn3cnc([N+](=O)[O-])c3)C2SC1` (stereo not shown) [P-75123, 7-1-(1H-4-nitroimidazolyl)acetyl!amino-3-5-(1H-1-methyltetrazolyl)thio!methyl-3-cephem-4-carboxylic acid], the “inhibiting the growth of selected bacterial clinical isolates” value is on record as “effective in inhibiting the growth”.
